Measured values as given in PubChem BioAssay AID360 (National Center for Advancing Translational Sciences (NCATS), 2006).
About 550 (1.1%) of roughly 48,000 compounds were called active. Not shown: some 4% with an inconclusive outcome. No stated cut-off is given here; in the data, active means potency below about 15 µM; inconclusive means mostly about 16 µM to 33 µM; inactive means weaker than that. This is one part of the list.

Each compound was assayed against Lysosomal acid glucosylceramidase (Homo sapiens) (UniProt P04062) (assay: Glucocerebrosidase). Conditions: purified enzyme, resorufin glucoside fluorescence (screen aimed at inhibitors), 20 min.
Chain of UniProt P04062 (P04062 whole entry, looked up): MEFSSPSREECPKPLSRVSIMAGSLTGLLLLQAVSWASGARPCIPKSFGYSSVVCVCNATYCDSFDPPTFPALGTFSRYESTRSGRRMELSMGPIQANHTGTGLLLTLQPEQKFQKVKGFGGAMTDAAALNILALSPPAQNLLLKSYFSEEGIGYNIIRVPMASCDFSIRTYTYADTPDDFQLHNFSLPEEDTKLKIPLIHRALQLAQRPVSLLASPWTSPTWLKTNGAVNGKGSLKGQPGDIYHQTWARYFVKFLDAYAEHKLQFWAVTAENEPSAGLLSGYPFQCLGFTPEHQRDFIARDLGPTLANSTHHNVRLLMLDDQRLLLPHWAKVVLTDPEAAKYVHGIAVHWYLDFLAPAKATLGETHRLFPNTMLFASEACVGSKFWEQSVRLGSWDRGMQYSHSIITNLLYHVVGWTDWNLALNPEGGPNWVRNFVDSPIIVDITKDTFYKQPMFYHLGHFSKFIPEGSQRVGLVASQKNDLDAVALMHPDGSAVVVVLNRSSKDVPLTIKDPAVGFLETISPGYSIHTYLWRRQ
How it was run: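 Normal human glucocerebrosidase (0.2 nM final) was assayed with resorufin β-D-glucopyranoside (30 uM final) in 50mM citric acid/KH2PO4, 10mM sodium taurocholate, 0.01% tween-20, pH 5.9. Compounds were titrated; fluorescence (Ex 548, Em 600) read after 20 min at RT.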
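Further: the screen sought inhibitors.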
Potency means the concentration at half of the fitted maximal effect.

Potency, inactive:
CC(=O)c1cccc(NC(=O)CN(c2ccc(C)cc2)S(=O)(=O)c2cccc3nonc23)c1 > 15.4 µM
CC1CN(C(=O)c2cc(F)c(F)cc2Cl)CC(C)O1 (stereo unspecified) > 76.9 µM
CC(=O)c1ccc(Nc2nc(C)nc3c2oc2ccccc23)cc1 > 76.9 µM
CCCNC(=O)Cc1ncn[nH]1 > 76.9 µM
Cn1c(SCC(=O)NCc2ccc3c(c2)OCO3)nnc1-c1c[nH]c2ccccc12 > 76.9 µM
O=C(Nc1nc(-c2nc3ccccc3s2)cs1)c1ccc(S(=O)(=O)N2CCOCC2)cc1 > 76.9 µM
Cc1cc(C)c2c(c1)-c1cc(C)nn1C(c1ccc3c(c1)OCO3)N2 (stereo unspecified) > 76.9 µM
Cc1cccc(-n2c(SCCC(=O)O)nnc2-c2cccs2)c1C > 76.9 µM
Cc1sc2nc(SCC(=O)NCc3ccco3)n(CCc3ccccc3)c(=O)c2c1C > 76.9 µM
CCN1CCN(c2ncc(C(=O)N3CCCc4ccccc43)c3ccccc23)CC1 > 76.9 µM
CCOC(=O)N1CCN(C(=O)CSc2nnc(-c3cccc(OC)c3)o2)CC1 > 76.9 µM
CCCN(CCC)CCCNC(=O)CS(=O)Cc1nc(-c2ccc(OC)c(OC)c2)oc1C (stereo unspecified) > 76.9 µM
CCCC(=O)Nc1cc(OC)c(NC(=O)NC2CCCCC2)cc1OC > 76.9 µM
Cc1noc(C)c1C(=O)NCCc1ccc(Cl)cc1 > 76.9 µM
COc1ccc(N(Cc2cc3cc(OC)ccc3[nH]c2=O)C(=O)c2cccnc2)cc1 > 76.9 µM
CC1(C)OC(=O)C(C(c2ccccc2)C(C#N)C(N)=O)=C(O)O1 (stereo unspecified) > 76.9 µM
COc1ccc(C2(O)CCN(Cc3nnnn3Cc3ccc(C)cc3)CC2)cc1 > 76.9 µM
COc1ccccc1-c1nnc2sc(-c3cnccn3)nn12 > 76.9 µM
COC(=O)[C@H](Cc1ccccc1)NC(=O)NCC1CCCO1 (stereo partly specified) > 76.9 µM
Cc1c(NS(=O)(=O)c2ccc3c(c2)c(=O)n(C)c(=O)n3C)c(=O)n(-c2ccccc2)n1C > 76.9 µM
CCC(C)N1C(=O)C2C(C(=O)Nc3cccc(OC)c3)C3C=CC2(O3)C1C(=O)NC1CCCCC1C (stereo unspecified) > 76.9 µM
CC(C)Nc1nc(N(c2ccccc2)c2ccccc2)nc(-n2ccnc2)n1 > 76.9 µM
COc1ccc(OCC(=O)Nc2cccc3cccnc23)cc1
CCOC(=O)c1cc(C(O)(C(F)(F)F)C(F)(F)F)c(/N=C/N(C)C)o1 > 76.9 µM
O=C(CN1CCN(Cc2ccccc2)C1=O)NCc1ccc(Cl)cc1 > 76.9 µM
COC(=O)c1ccc(C2C(C(C)=O)=C(O)C(=O)N2CCO)cc1 (stereo unspecified) > 76.9 µM
COC(=O)c1ccc(S(=O)(=O)N2CCCCCC2)cc1 > 76.9 µM
COc1ccc(C(=O)CSc2nnc(C3CCCCC3)n2N)c(OC)c1 > 76.9 µM
CCCCN(CC)S(=O)(=O)c1ccc2c(c1)CCCN2C(C)=O > 76.9 µM
O=C(Nn1cnnc1)c1cc2cc(Br)ccc2oc1=O > 76.9 µM
Cc1nc2cc(C(=O)NCCN3CCOCC3)ccc2n1-c1ccc(F)cc1F
CCN(CC)CCN1C(=O)C(=O)/C(=C(/O)c2c(C)[nH]c(C(=O)OC)c2C)C1c1ccccc1OC (stereo unspecified) > 76.9 µM
CCOC(=O)CSC1=C(C#N)C(c2ccco2)C(C(=O)Nc2cccc(C(F)(F)F)c2)=C(C)N1 (stereo unspecified)
O=C(Nc1ccccc1N1CCN(C(=O)c2ccccc2)CC1)c1ccc2c(c1)OCO2 > 76.9 µM
CCC(=O)Nc1nonc1-c1nc2ccccc2n1Cc1ccc(Cl)c(Cl)c1 > 76.9 µM
C=CCn1c(SCC(=O)N2CCOCC2)nc2scc(-c3ccco3)c2c1=O > 76.9 µM
Cc1occc1-c1nnc(SCC(=O)NCC2CCCO2)n1C (stereo unspecified) > 76.9 µM
CC(C)C(=O)NC(C)C(c1cccs1)N1CCN(c2ccccc2)CC1 (stereo unspecified) > 76.9 µM
CSc1nc(-c2ccco2)cc(-c2ccccc2)c1C#N
COc1ccc(C(=O)Nc2ccccc2C(N)=O)cc1 > 76.9 µM
Cc1nc(NC(=O)C2CC2)sc1C(=O)N1CCCCC1 > 76.9 µM
Cc1nn(-c2ccc(Cl)cc2)c2sc(C(=O)N3CCN(C(=O)c4ccco4)CC3)cc12 > 76.9 µM
O=S1(=O)NC(=NC2CCCCCC2)c2ccccc21 > 76.9 µM
COc1ccc(C(OC(=O)c2ccco2)C(=O)NC2CCCCC2)cc1OC (stereo unspecified) > 76.9 µM
Cc1ccc(-n2c(SCC(=O)NCC3CCCO3)nnc2-c2ccoc2C)cc1 (stereo unspecified) > 76.9 µM
COc1ccccc1-c1ccc(=O)n(CC(=O)NC(C)(C)C)n1 > 76.9 µM
CCOC(=O)c1c(C)oc2ccc(OCC(=O)N(CC)CC)cc12 > 76.9 µM
O=c1oc(-c2ccccc2)nc2c1cnn2-c1ccccc1 > 76.9 µM
CCOC(=O)N1CCN(C(=O)C2CCCN(S(=O)(=O)c3cc(C)ccc3OC)C2)CC1 (stereo unspecified) > 76.9 µM
Nc1nc(NCc2cccs2)nn1-c1ccccc1 > 76.9 µM
CCOC(=O)N1CCN(C(=O)CCc2ccc(S(=O)(=O)NCCc3ccccc3)cc2)CC1 > 76.9 µM
CCn1c(SCc2ccc(C#N)cc2)nnc1-c1cccc(Cl)c1 > 76.9 µM
Cc1nonc1NC(=O)OCCN1CCOC1=O > 76.9 µM
O=C1CN(C(=O)COC(=O)c2ccccc2NC(=O)c2ccco2)c2ccccc2N1 > 76.9 µM
CS(=O)(=O)NCCSc1nnnn1-c1ccccc1 > 76.9 µM
O=C(c1cccc(S(=O)(=O)N2CCCCC2)c1)N1CCOCC1 > 76.9 µM
